Test results reported in PubChem BioAssay AID624296 (National Center for Advancing Translational Sciences (NCATS), 2012).
In all, about 350,000 compounds went through this assay and about 9,900 (2.8%) were called active. This list was built around the results that the source calls inconclusive (neither active nor inactive); the mix of calls is not that of the screen. Calls follow the shape of the dose curve; as a rule, active = well fitted activation curve with a large enough effect; inconclusive = small, poorly fitted or top-dose-only effect; inactive = no such curve, though single readings can be large or run the other way. Potencies of inconclusive entries are left out as doubtful fits.

Assay: A quantitative high throughput screen for small molecules that induce DNA re-replication in MCF 10a normal breast cells. Also: nearly all actives have a fitted effect of over 50% in size.
Settings: MCF 10A DNA re-replication, Hoechst nuclear intensity, 48 h; series mostly up to 46.1 µM
Potency is read from the fitted curve at half-maximal effect; tags tell the direction and shape of the fitted curve.

| Structure (SMILES) | Potency |
| --- | --- |
| O=C(NCC(c1ccco1)N1CCc2ccccc2C1)C(=O)Nc1ccccc1F (stereo not given) | inconclusive [activator, single point] |
| COc1ccccc1NS(=O)(=O)c1cc(C(=O)NC2CCN(Cc3ccccc3)CC2)ccc1C | inconclusive [activator, single point] |
| CC(Oc1ccc(Cl)cc1Cl)c1nc(-c2ccc(NC(=O)c3ccccn3)cc2)no1 (stereo not given) | inconclusive [activator, full curve] |
| COc1ccc2cc([C@H](C)C(=O)N(C)Cc3ccccc3N3CCCC3)ccc2c1 | inconclusive [activator, single point] |
| COc1c([N+](=O)[O-])c(=O)n(-c2ccccc2)c2ccccc12 | inconclusive [activator, single point] |
| COc1cccc(CN(Cc2ccco2)C(c2ccc(F)cc2)c2nnnn2C(C)(C)C)c1 (stereo not given) | inconclusive [activator, full curve] |
| Cc1cc(N2CCOCC2)nc(SCC(=O)c2ccccc2)n1 | inactive |
| O=C(CCS(=O)(=O)c1ccccc1)Nc1ccc(N2CCN(Cc3ccccc3)CC2)cc1 | inconclusive [activator, partial curve, poor fit] |
| CC(=O)N1CCN(C(=O)c2cc3c(s2)CCCC3)CC1 | inactive |
| CCc1ccc(CNCCSc2nnnn2C)cc1 | inconclusive [activator, partial curve, poor fit] |
| N#C/C(=C\Nc1ccc2c(c1)OCCO2)c1nc(-c2ccccc2)cs1 | inconclusive [activator, partial curve, poor fit] |
| COc1cc2cc(CN(CCN3CCOCC3)C(=O)Nc3ccc(F)cc3)c(=O)[nH]c2cc1OC | inconclusive [activator, full curve, poor fit] |
| COc1cccc(-n2c(C)nc3c(cnn3-c3ccc(C)cc3)c2=O)c1 | inactive |
| Cc1ccc(S(=O)(=O)N(C)c2ccc(C(=O)NCC(c3ccco3)N(C)C)cc2)cc1 (stereo not given) | active: 9.2 µM |
| CC(C)c1nnc(SCC(=O)NC2CCCC2)n1C | inactive |
| CCOC(=O)c1cc(C(=O)OCC)c2ccccn2c1=O | inconclusive [activator, single point] |
| O=C(N/N=C/C(Br)=C/c1ccccc1)c1cc(-c2ccco2)[nH]n1 | active: 7.31 µM |
| NC(=O)c1ccccc1NC(=O)COC(=O)C1(c2ccccc2)CC1 | inactive |
| CC1CCN(CC(O)COc2ccc(-c3ccccc3)cc2)CC1 (stereo not given) | inconclusive [activator, single point] |
| CC(=O)CCS(=O)(=O)c1ccc(Oc2ccc(S(=O)(=O)CCC(C)=O)cc2)cc1 | inconclusive [activator, single point] |
| O=C(O)CSCC(=O)N1CCN(Cc2ccc3c(c2)OCO3)CC1 | inactive |
| Cc1sc2nc(CN3CCCC3)nc(N3CCN(C(=O)c4ccco4)CC3)c2c1C | inactive |
| O=C(/C=C/c1cccc(Cl)c1)c1nc2ccccc2[nH]1 | inconclusive [activator, full curve, poor fit] |

| Structure (SMILES) | Potency |
| --- | --- |
| COc1ccc(C/C(C)=N/NC(=S)Nc2ccc(C(C)C)cc2)cc1 | inactive |
| Cc1cc(C)c(NC(=O)COC(=O)c2cc([N+](=O)[O-])ccc2N2CCOCC2)c(C)c1 | inconclusive [activator, single point] |
| COc1cccc(N2CCN(C(=O)CN3C(=O)NC(C)(c4ccc5ccccc5c4)C3=O)CC2)c1 (stereo not given) | inactive |
| Cc1cc(Cl)ccc1OC(C)C(=O)Nc1ccc([N+](=O)[O-])cn1 (stereo not given) | inconclusive [activator, partial curve, poor fit] |
| Brc1ccc2[nH]c3c(N4CCc5ccccc5C4)ncnc3c2c1 | inconclusive [activator, single point] |
| COc1ccc(OCc2cc(C(=O)N3CCCC3)no2)c2ccccc12 | inconclusive [activator, partial curve, poor fit] |
| OC1CCCN(CC(O)COc2ccc(-c3ccccc3)cc2)C1 (stereo not given) | inconclusive [activator, single point] |
| COCCNC(=O)CN1CCC(NC(=O)c2ccco2)CC1 | inactive |
| O=C(Cn1cncn1)N/N=C/c1c2ccccc2cc2ccccc12 | inconclusive [activator, single point] |
| CCN(CCCNC(=O)C1CCN(S(=O)(=O)CC)CC1)c1cccc(C)c1 | inactive |
| CC1CCc2c(sc(NC(=O)c3ccco3)c2C(=O)O)C1 (stereo not given) | inactive |
| CCN(CC(=O)Nc1ccc(NC(C)=O)cc1)C(=O)COc1ccccc1-c1ccccc1 | inactive |
| O=C1NC2CCCCC2C(=O)N1OS(=O)(=O)c1ccccc1 (stereo not given) | inconclusive [activator, single point] |
| Cc1cccc2c1-c1sc(C(=O)Nc3cccnc3)cc1CO2 | inconclusive [activator, single point] |
| Nc1nonc1-n1nnc(C(=O)N/N=C/c2ccc(OCc3ccccc3F)cc2)c1CN1CCCCC1 | inconclusive [activator, partial curve, poor fit] |
| COc1cc2c(cc1OC)C(=O)C(CC1CCN(Cc3ccccc3)CC1)C2 (stereo not given) | inconclusive [activator, partial curve, poor fit] |
| COc1ccc(NC(=S)NCc2ccccc2)c(OC)c1 | inactive |
| O=C(NCCc1ccccc1)c1cc2ncc(Br)cn2n1 | inconclusive [activator, single point] |
| Nc1nnc(CCCCCc2nnc(N)s2)s1 | inactive |
| COc1cccc(COC(=O)C2CC(=O)N(Cc3ccco3)C2)c1OC (stereo not given) | inconclusive [activator, full curve, poor fit] |
| O=C(c1ccco1)N(CCC(c1ccccc1)c1ccco1)Cc1ccco1 (stereo not given) | inconclusive [activator, single point] |
| CCCCCc1ccc(CC(=O)Nn2c(C)nc3ccccc3c2=O)cc1 | inconclusive [activator, single point] |
